Source: publication PMC6152123, “Sites for Dynamic Protein-Carbohydrate Interactions of O- and C-Linked Mannosides on the E. coli FimH Adhesin” (Molecules : A Journal of Synthetic Chemistry and Natural …, 2017)

Tested on: type-1 piliated uropathogenic E. coli strain UTI89
Experiment: Haemagglutination inhibition assay (HAI), guinea pig red blood cells
Settings: for IC50: Escherichia coli, Erythrocyte, read-out: IC50 HAI (µM); for HAI: minimal concentration inhibiting haemagglutination, 2-fold dilution series, 10% DMSO, 1 hour at 4 °C

Row | Structure (SMILES) | IC50 | HAI | fold better inhibitory potency than alkene 25 (HAI data) | fold higher inhibition potency than 4-thio analog 37 (ITC and HAI measurements)
1 | OC[C@H]1O[C@H](CCCc2cccc3ccccc23)[C@@H](O)[C@@H](O)[C@@H]1O [Compound 122] | 12.5 µM | – | – | –
2 | OC[C@H]1O[C@H](OCC#Cc2cccc3ccccc23)[C@@H](O)[C@@H](O)[C@@H]1O [Compound 53] | 50 µM | 50 µM | – | –
3 | COCC#Cc1ccc(O[C@H]2O[C@H](CO)[C@@H](O)[C@H](O)[C@@H]2O)cc1 [Compound 62] | 25 µM | 25 µM | – | –
4 | OC[C@H]1O[C@H](OCC#Cc2cccnc2)[C@@H](O)[C@@H](O)[C@@H]1O [Compound 55] | 50 µM | 50 µM | – | –
5 | OC[C@H]1O[C@H](OCC#Cc2ccc(-c3ccccc3)cc2)[C@@H](O)[C@@H](O)[C@@H]1O [Compound 51] | 100 µM | 100 µM | – | –
6 | OC[C@H]1O[C@H](OC/C=C/c2ccc(-c3ccccc3)cc2)[C@@H](O)[C@@H](O)[C@@H]1O [Compound 23] | 25 µM | 25 µM | – | –
7 | OC[C@H]1O[C@H](OC/C=C/c2cccc3ccccc23)[C@@H](O)[C@@H](O)[C@@H]1O [Compound 25] | 50 µM | 50 µM | – | –
8 | CCCCO[C@H]1O[C@H](CO)[C@@H](O)[C@H](O)[C@@H]1O [Compound 4, reference compound] | 100 µM | 100 µM | – | –
9 | OC[C@H]1O[C@H](C/C=C/c2ccc(-c3ccccc3)cc2)[C@@H](O)[C@@H](O)[C@@H]1O [Compound 116] | 100 µM | – | – | –
10 | CCCSCCCO[C@H]1O[C@H](CO)[C@@H](O)[C@H](O)[C@@H]1O [Compound 37] | 25 µM | 25 µM | – | –
11 | OCC#Cc1ccc(O[C@H]2O[C@H](CO)[C@@H](O)[C@H](O)[C@@H]2O)cc1 [Compound 61] | 12.5 µM | 12.5 µM | – | –
12 | OC[C@H]1O[C@H](OCCCc2cccc3ccccc23)[C@@H](O)[C@@H](O)[C@@H]1O [Compound 29] | 25 µM | 25 µM | 2 fold | –
13 | CCCCCCCO[C@H]1O[C@H](CO)[C@@H](O)[C@H](O)[C@@H]1O [Compound 5, heptyl α-D-mannopyranoside, reference compound] | 6.25 µM | 6.25 µM | – | ~ 4 fold
14 | COc1ccc(C#CCO[C@H]2O[C@H](CO)[C@@H](O)[C@H](O)[C@@H]2O)cc1 [Compound 56] | 50 µM | 50 µM | – | –
15 | OC[C@H]1O[C@H](CCCc2ccc(-c3ccccc3)cc2)[C@@H](O)[C@@H](O)[C@@H]1O [Compound 120] | 12.5 µM | – | – | –
16 | OC[C@H]1O[C@H](OCCCc2ccc(-c3ccccc3)cc2)[C@@H](O)[C@@H](O)[C@@H]1O [Compound 27] | 25 µM | 25 µM | – | –
17 | OC[C@H]1O[C@H](C/C=C/c2cccc3ccccc23)[C@@H](O)[C@@H](O)[C@@H]1O [Compound 118] | 25 µM | – | – | –
